Laboratory results: the supplement of paper PMC11417369
This is one part of the list.

Test system: PfSIP2 AP2 domain 1 (GST-tagged)
Experiment: gcPBM binding intensity (ln(normalized median fluorescence intensity)); higher = stronger DNA binding
Procedure, shortened: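 After 1 h on an Agilent 4 × 180k array of primer-extended double-stranded 36-bp intergenic genomic probes and negative controls, bound GST-tagged P. falciparum DNA-binding domains were detected with Alexa488 anti-GST antibody and scanned at 488 nm. The domains had been expressed in E. coli, and binding took place in 1× PBS with 1% milk, 0.2 mg/ml BSA, 0.5% salmon testes DNA and 0.03% Triton X-100. Binding intensity is the highest Masliner-normalised natural-log median intensity across replicate spots of either probe orientation.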

For “ATCAAAAATATAAAAAATATAAACAATTTATTATCA [CACACA_negctrl_site768]”, which “gcPBM binding intensity (ln)” value is on record?
The value was 6.65.

“GAATCATATTTAAACACACATACATATATATATATA [CACACA_site3352]” was tested. Which “gcPBM binding intensity (ln)” value did it give?
The value was 8.82.

With “AATAAGTAACAAAATACACACATATATATAATTATA [CACACA_site1837]” as the sequence, how does the “gcPBM binding intensity (ln)” value read?
Its value is 6.93.

How did the “gcPBM binding intensity (ln)” value turn out when “TTCATTATTATTAACATACACACGTGTTATATACAC [CACACA_site4112]” was run?
The value was 7.11.

With “TTTTTACTATAATTAAAATTAACAAAAGAAAATGAT [GTGCAC_negctrl_site52]” as the sequence, how does the “gcPBM binding intensity (ln)” value read?
Its value is 7.15.

“AAAAAATACAAGAAATGTACTCAAGCATATATTAAT [XGTACX_site3325]” was tested. Which “gcPBM binding intensity (ln)” value did it give?
The value was 6.92.

For “TTCATTTTTTAAGCATCACACACGAAAGAACAAAGT [CACACA_site1122]”, which “gcPBM binding intensity (ln)” value is on record?
The value was 7.69.

Which “gcPBM binding intensity (ln)” value does the source give for “TTTAATAATATAATGTGTACTTAAAAATTTATATAT [XGTACX_site5821]” here?
The value was 7.23.

Which “gcPBM binding intensity (ln)” value does the source give for “TCATAAATTAATAATACATGCATAATATTAAAATGT [TGCATGCA_site5]” here?
Its value is 6.94.

How did the “gcPBM binding intensity (ln)” value turn out when “AAAAATATATAAGAGAGTACATAAAATAAATTAATT [XGTACX_site1534]” was run?
Its value is 6.87.

Which “gcPBM binding intensity (ln)” value does the source give for “TTTTTTTTTCCCGTAAATATTGAGACAACCATAATG [CACACA_negctrl_site41]” here?
The value was 7.1.

“TATTTTTATTTAGGACGTACAAAAATAAATCATATT [XGTACX_site1448]” was tested. Which “gcPBM binding intensity (ln)” value did it give?
The value was 7.21.

With “TTAAAAATATATATAACACACACATAATATATATAT [CACACA_site8811]” as the sequence, how does the “gcPBM binding intensity (ln)” value read?
The value was 8.54.

Which “gcPBM binding intensity (ln)” value does the source give for “TATAAATATTACGGTAGTACTATACATATATATAAT [XGTACX_site7442]” here?
Its value is 7.08.

“TTAGAAACATTGAAAGCATGCAATATTACTTTATAC [TGCATGCA_site522]” was tested. Which “gcPBM binding intensity (ln)” value did it give?
Its value is 6.96.

For “TCCTTATATTTGCACACACACACAAGAAAATGAAAA [CACACA_site6613]”, which “gcPBM binding intensity (ln)” value is on record?
The value was 8.3.

Which “gcPBM binding intensity (ln)” value does the source give for “CATATAAAAAGACACACACACACATATATATATATA [CACACA_site940]” here?
The value was 9.82.

How did the “gcPBM binding intensity (ln)” value turn out when “ATAAAAAACTCAGAGCGTACATAATTTTTTCTATTT [XGTACX_site2803]” was run?
Its value is 7.24.

Which “gcPBM binding intensity (ln)” value does the source give for “TAACCATACATACATACACACACACCCACATATATA [CACACA_site8951]” here?
Its value is 7.2.

How did the “gcPBM binding intensity (ln)” value turn out when “TATATATTCAAATGTGCATGTAAAAAAAAAAAAAAG [TGCATGCA_site126]” was run?
The value was 7.36.

For CAGGAGAGTAAAAGAGTGCGAATTATTATTTTGGAG, which “gcPBM binding intensity (ln)” value is on record?
The value was 7.88.

How did the “gcPBM binding intensity (ln)” value turn out when “GGCATATATATATGCACACATACATAAATACATGTG [CACACA_site5999]” was run?
The value was 7.5.

For “TCCCTAGTATACCTTAGTACATATATTATTTTGCAC [XGTACX_site2174]”, which “gcPBM binding intensity (ln)” value is on record?
The value was 9.21.

“AGACATTAATGAAGGTGTACATATATTTGACAGAAT [XGTACX_site655]” was tested. Which “gcPBM binding intensity (ln)” value did it give?
The value was 7.23.

“TATATAATATAATTGACATGCAACCATTTTCGTGAA [TGCATGCA_site458]” was tested. Which “gcPBM binding intensity (ln)” value did it give?
The value was 6.84.
